According to article PMC4336329 (PLoS ONE, 2015):
The whole screen tested about 310,000 compounds, of which about 14,000 (4.5%) showed an effect of 50% or more. The effect is printed as a negative number. The list shows a part of the results.

What follows are compounds tested against human ether-à-go-go-related gene (hERG) potassium channel (human, UniProt Q12809) (assay: primary screen, population patch clamp on CHO cells stably expressing hERG).
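Note: peak tail current of the secondary pulse compared with the same well before compound.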

human ether-à-go-go-related gene (hERG) potassium channel, sequence (Q12809 whole entry, looked up): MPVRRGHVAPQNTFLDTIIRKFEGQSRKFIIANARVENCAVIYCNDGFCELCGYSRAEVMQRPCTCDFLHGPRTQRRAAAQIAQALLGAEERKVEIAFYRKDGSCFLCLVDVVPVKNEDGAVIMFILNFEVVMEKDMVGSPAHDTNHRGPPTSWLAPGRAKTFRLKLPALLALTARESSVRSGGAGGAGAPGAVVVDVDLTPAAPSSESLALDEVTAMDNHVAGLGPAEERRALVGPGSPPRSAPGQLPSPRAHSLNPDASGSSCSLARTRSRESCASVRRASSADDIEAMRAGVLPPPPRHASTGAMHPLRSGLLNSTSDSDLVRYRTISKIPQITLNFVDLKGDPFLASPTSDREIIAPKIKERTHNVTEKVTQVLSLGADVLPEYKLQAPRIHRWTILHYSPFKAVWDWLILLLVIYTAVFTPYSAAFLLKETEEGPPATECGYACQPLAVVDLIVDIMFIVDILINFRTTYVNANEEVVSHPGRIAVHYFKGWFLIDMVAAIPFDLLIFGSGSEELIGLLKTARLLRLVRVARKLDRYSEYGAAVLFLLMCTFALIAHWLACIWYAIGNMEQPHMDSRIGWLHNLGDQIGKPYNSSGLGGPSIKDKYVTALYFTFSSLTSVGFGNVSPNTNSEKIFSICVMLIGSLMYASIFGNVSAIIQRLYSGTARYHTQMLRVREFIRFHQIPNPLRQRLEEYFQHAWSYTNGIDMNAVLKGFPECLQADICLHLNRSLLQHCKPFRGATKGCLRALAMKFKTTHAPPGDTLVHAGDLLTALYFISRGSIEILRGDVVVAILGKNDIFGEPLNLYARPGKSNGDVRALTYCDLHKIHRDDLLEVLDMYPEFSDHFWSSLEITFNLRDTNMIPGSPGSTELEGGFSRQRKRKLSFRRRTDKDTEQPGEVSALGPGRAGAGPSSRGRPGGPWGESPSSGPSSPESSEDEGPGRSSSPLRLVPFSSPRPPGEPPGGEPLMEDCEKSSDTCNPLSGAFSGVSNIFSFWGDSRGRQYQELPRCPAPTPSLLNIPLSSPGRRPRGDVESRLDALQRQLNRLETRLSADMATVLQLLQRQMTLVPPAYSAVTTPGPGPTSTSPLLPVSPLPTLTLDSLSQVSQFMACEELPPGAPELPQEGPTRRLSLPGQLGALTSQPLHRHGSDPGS

| Compound | hERG current change (%, negative = inhibition) at 10uM |
| --- | --- |
| O=C(NCc1ccccc1)C(c1ccc(Cl)cc1)N(C(=O)c1csnn1)C1CC1 (centres unmarked) | 1.5% |
| O=C(CSc1ccccc1C(=O)O)NCc1ccc(Cl)cc1 | -8.22% |
| O=C(CSc1ccc(Cl)cc1)Nn1cnnc1 | 3.38% |
| Cc1ccc(CC(NC(=O)c2ccccc2)C(=O)NC(C)C(=O)O)cc1 (centres unmarked) | 8.14% |
| COc1cc(-c2ccc(NC(C)=O)c(OC)c2)ccc1NC(C)=O | -2.32% |
| COc1ccc(Nc2nc3ccccc3nc2-n2nc(C)cc2C)cc1 | 2.07% |
| O=C(NCC1CCCO1)C1CCN(S(=O)(=O)c2cc(Cl)ccc2Cl)CC1 (centres unmarked) | -19% |
| CCOc1cc(C(=O)NN=C2CCCC2)cc(OCC)c1OCC | 23.6% |
| CCCN(CCC)CCCNC(=S)Nc1ccc2nc3n(c(=O)c2c1)CCCCC3 | 6.36% |
| CCCC1(c2ccccc2)NC(=O)N(CC(=O)Nc2ccccc2C(F)(F)F)C1=O (centres unmarked) | -28.3% |
| COC(=O)c1ccc(S(=O)(=O)N(C2CCCCC2)C2CCCCC2)n1C | 5.85% |
| COc1cc([N+](=O)[O-])ccc1-c1ccc(/C=N/NC(=O)OC(C)(C)C)o1 | 16.8% |
| COc1ccc2c(c1)C(=O)N(CCc1ccc(S(=O)(=O)NC(=O)NC3CCCCC3)cc1)C(=O)C2(C)C | -2.96% |
| O=C(Cn1ncc2c(=O)oc3ccccc3c21)NC1CC1 | 9.98% |
| O=C(O)c1cc(N/N=C/c2cccnc2)ccc1Cl | -15.3% |
| COc1cccc(C(=O)COC(=O)C(C)N2C(=O)C3C4C=CC(C4)C3C2=O)c1 (centres unmarked) | -9.71% |
| O=C(O)c1c(F)c(F)c(F)c(F)c1-c1ccc(Cl)cc1 | 8.99% |
| COC(=O)C1=C(c2ccc3ccccc3c2)C[C@@H]2CC[C@H]1N2C(=O)N1CCOCC1 | 2.41% |
| O=C(O)CCC(=O)N1CCc2cc(S(=O)(=O)N3CCCCC3)ccc21 | 7.86% |

| Compound | hERG current change (%, negative = inhibition) at 10uM |
| --- | --- |
| COc1cc2c(cc1OC)CN(C1CC(=O)N(c3c(C)cccc3C)C1=O)CC2 (centres unmarked) | 17.1% |
| Cc1cc(=O)oc2cc(OCC(=O)NCc3ccncc3)ccc12 | -10.2% |
| CCCOc1cccc(C(=O)NC(=S)Nc2cccc(C(F)(F)F)c2)c1 | 15.1% |
| CCSc1nnc(-c2cc(Br)ccc2NC(C)=O)c(=O)[nH]1 | -20.2% |
| COc1cc(NC(=O)COC(=O)c2cc(S(=O)(=O)N3CCCCC3)ccc2Cl)c(C)cc1[N+](=O)[O-] | 2.66% |
| COc1cc2c(cc1OC)C(c1ccccc1)NC(C)(C)C2.Cl (centres unmarked) | 6.51% |
| COc1ccccc1NC(=O)CCN1C(=O)/C(=C\c2cc(OC)c(OC)c(OC)c2)SC1=S | 16.8% |
| COc1ccc(Cc2nc3ccc(C(=O)NC(C)Cc4ncccc4C)cc3o2)cc1OC (centres unmarked) | 2.69% |
| Cc1c(NC(=O)C(C)Sc2ccc3ccccc3n2)c(=O)n(-c2ccccc2)n1C (centres unmarked) | -8.22% |
| O=C(NCc1ccncc1)NC1CCCCC1 | 20.6% |
| C=CCN1C(=O)CN=C1Nc1ccccc1 | 20.4% |
| COCCCN1C(=O)C(O)=C(C(=O)c2ccco2)C1c1ccccc1 (centres unmarked) | 21.3% |
| Cc1cc(S(=O)(=O)Nc2c(C)nn(C)c2C)c(Cl)cc1Cl | 1.91% |
| CSCCC(Nc1nc2ccccc2s1)C(=O)O (centres unmarked) | 14.7% |
| C/C(=N/NC(=O)CN(c1ccccc1)S(=O)(=O)c1ccccc1)c1ccccc1O | -6.6% |
| COc1ccccc1N1CC(C(=O)NCCC2=CCCCC2)CC1=O (centres unmarked) | -2.65% |
| CCNC(=S)Nc1cc(OCC)c(NC(=O)c2cccs2)cc1OCC | 19.5% |
| CC(=O)N1CCN(C(=O)c2ccc(OC3CCN(CCc4ccccc4)CC3)cc2)CC1 | 15.6% |
| Cc1c(C(=O)Nc2ccc3c(c2)OCO3)sc2ncn(CC(=O)N3CC(C)CC(C)C3)c(=O)c12 (centres unmarked) | -6.16% |

| Compound | hERG current change (%, negative = inhibition) at 10uM |
| --- | --- |
| Cc1ccc2nc(Cl)c(CN(Cc3cccs3)C(=O)C3CC3)cc2c1 | 8.82% |
| CCOC(=O)N(NC(=O)C(O)(c1ccccc1)c1ccccc1)c1ccccc1 | 2.17% |
| Cc1ccc(O)c(CNc2cccc3cccnc23)c1 | 11.8% |
| CN(C)CCSc1nnc2[nH]c3ccccc3c2n1.Cl | -22.5% |
| CC1CCC2(CC1)NC(=O)N(CC(=O)Nc1ccc3[nH]c(=O)[nH]c3c1)C2=O (centres unmarked) | 0.0265% |
| COc1ccc(C(=O)N/C(=C\c2ccccc2)C(=O)NCc2cccnc2)cc1 | -70.8% |
| CCOC(=O)CSc1nnc(CSc2nc(C)cc(C)n2)n1Cc1ccco1 | 8.53% |
| NC1=NC(=O)/C(=C/c2cn(CCC(=O)O)nc2-c2ccc(Cl)cc2)S1 | 23.8% |
| CC(=O)Nc1ccc(S(=O)(=O)Nc2ccc3c(c2)OCO3)cc1 | 17.2% |
| Cc1ccc(C(C)C)c(OCC(O)CN2CCOCC2)c1 (centres unmarked) | -2.99% |
| COc1ccc(CCN=Cc2ccccc2O)cc1OC | -2.77% |
| Cc1ccccc1C(=O)NC(=S)Nc1ccc(S(=O)(=O)N2CCOCC2)cc1 | -40% |
| CC1OC(NCCc2ccccc2)C(O)C(O)C1O (centres unmarked) | -0.396% |
| Cc1cc(C)c2nc(-c3ccccn3)cc(C(=O)Nn3cnnc3)c2c1 | 8.45% |
| COc1cc(C(CC(=O)Nc2ccccn2)N2Cc3ccccc3C2=O)cc(OC)c1OC (centres unmarked) | -11.5% |
| COC(=O)C1=C(C)N(C)C(=O)NC1c1cc2c(cc1[N+](=O)[O-])OCO2 (centres unmarked) | 15.4% |
| CCc1nnc(N/N=C/c2c(Cl)cccc2Cl)n1N | -4.44% |
| N/C(=N\OC(=O)/C=C/c1ccccc1)c1ccc(Cl)cc1 | 0.0352% |
